We go through six substances from publication PMC4612729.

By UniProt entry, the sequences of proteins in these tests, tags left out. Where a name states a change or a piece, a line headed by the entry shows the natural chain unless it says otherwise. Chains listed by the source or under a name are the forms on record and can include a tag or linker.
UniProt P11802: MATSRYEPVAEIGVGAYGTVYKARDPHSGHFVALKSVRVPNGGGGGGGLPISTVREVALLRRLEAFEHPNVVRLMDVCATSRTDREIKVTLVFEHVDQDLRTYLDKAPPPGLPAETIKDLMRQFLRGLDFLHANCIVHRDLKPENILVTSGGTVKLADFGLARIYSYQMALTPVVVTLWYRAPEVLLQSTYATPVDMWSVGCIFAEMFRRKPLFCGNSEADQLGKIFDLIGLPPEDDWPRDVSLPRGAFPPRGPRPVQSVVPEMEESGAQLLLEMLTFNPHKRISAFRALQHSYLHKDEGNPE
UniProt P17302: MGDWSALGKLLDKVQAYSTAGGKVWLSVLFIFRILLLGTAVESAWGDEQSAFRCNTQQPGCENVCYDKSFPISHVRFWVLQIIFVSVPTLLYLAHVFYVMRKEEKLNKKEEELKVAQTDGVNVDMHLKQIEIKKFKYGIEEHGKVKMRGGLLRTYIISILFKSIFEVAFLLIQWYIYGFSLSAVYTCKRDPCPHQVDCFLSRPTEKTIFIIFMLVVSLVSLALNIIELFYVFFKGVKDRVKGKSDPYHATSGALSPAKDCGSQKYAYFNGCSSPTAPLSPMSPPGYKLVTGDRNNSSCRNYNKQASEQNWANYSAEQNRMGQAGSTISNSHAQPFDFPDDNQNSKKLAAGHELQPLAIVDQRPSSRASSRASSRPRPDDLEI
UniProt P24385: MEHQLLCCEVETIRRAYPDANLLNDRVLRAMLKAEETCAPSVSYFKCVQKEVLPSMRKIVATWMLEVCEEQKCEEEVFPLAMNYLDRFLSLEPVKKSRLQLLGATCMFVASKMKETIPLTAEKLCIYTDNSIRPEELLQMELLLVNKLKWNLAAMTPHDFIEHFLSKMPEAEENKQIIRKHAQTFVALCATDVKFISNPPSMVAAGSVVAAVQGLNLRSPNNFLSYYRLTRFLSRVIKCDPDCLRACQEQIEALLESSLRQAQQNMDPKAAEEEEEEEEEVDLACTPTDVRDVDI
UniProt P11142: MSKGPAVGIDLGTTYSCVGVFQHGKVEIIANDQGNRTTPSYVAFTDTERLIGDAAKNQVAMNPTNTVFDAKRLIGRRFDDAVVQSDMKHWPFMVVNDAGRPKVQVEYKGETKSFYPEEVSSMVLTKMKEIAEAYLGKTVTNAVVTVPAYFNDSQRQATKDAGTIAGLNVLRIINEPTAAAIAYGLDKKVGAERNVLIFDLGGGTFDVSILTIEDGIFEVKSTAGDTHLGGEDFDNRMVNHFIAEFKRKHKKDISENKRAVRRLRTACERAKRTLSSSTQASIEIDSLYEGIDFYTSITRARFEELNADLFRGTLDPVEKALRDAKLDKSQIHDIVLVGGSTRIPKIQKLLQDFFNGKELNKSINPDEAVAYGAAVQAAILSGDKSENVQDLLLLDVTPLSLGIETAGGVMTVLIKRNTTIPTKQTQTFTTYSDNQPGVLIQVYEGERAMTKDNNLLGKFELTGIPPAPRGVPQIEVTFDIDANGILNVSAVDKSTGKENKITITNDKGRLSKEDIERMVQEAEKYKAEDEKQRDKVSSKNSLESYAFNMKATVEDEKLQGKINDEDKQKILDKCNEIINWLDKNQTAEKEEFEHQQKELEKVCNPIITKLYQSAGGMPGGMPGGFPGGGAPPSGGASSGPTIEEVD
Hsc70 Δ385–543 mutant, T7-tagged (P11142, form named): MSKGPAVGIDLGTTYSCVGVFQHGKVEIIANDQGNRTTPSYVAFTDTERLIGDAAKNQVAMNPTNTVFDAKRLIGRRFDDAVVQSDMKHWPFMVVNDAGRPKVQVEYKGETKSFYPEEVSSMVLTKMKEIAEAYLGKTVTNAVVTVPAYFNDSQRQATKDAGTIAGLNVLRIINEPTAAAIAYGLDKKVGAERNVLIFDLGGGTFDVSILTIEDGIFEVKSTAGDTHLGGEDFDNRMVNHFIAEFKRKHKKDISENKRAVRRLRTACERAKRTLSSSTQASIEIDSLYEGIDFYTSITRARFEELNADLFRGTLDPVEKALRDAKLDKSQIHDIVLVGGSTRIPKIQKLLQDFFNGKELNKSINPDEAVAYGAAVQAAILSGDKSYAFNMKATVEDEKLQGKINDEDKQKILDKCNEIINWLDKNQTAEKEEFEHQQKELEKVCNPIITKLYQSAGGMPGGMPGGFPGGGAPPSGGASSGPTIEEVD
UniProt P46527: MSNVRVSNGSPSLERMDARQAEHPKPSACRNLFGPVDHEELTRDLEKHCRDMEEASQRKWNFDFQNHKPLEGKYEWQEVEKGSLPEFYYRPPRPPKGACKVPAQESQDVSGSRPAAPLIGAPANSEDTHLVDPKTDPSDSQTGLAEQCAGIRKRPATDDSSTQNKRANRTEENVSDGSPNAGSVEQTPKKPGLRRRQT

Assay [1] concerns the target CDK4, FLAG-tagged (human) (UniProt P11802). Briefly: co-IP; HuH-7 cells transfected with equivalent plasmids of HA-p27, cMyc-cyclin D1 and FLAG-CDK4, with or without T7-Hsc70, with or without Cx43, with or without siRNA of Hsc70; lysates immunoprecipitated by anti-FLAG-tag antibody or control IgG; western blot with anti-FLAG, anti-HA, anti-cMyc and anti-T7 tag antibodies. In general terms: In western blotting, separated proteins are transferred to a membrane and probed.

Assay [2] addresses Connexin 43 (Cx43), wild type (UniProt P17302). Description: co-IP; whole lysates of HuH-7 cells transfected with Cx43 or HA-p27 and various forms of T7-Hsc70 (wild type and deletion mutants); western blot with anti-T7-tag and anti-Cx43 or anti-HA-tag antibodies; precipitating antibody not named in the legend.
Assay [3] shares this target. Briefly: co-IP; lysates of HuH-7 cells co-transfected with two plasmids, 48 hr after transfection; immunoprecipitated by anti-Cx43 (Fig. 3a, 3c) or anti-T7-tag (Fig. 3b) antibody or control IgG; western blot with anti-T7 or anti-HA antibody.

Results are given in words; binding and its absence hold for the method and conditions named. In cells and extracts the contact can be indirect. Some results given as binding are weak or reduced against the parent protein; the word gives no strength.

Regarding “cyclin D1, cMyc-tagged (from UniProt P24385 1-295)”, the binding result in assay [1] is “binds”.

With “Hsc70 Δ543–646 mutant, T7-tagged (from UniProt P11142 1-542) (domain or fragment)”, the binding result in assay [2] is recorded as “binds”.

As for “Hsc70 Δ385–543 mutant, T7-tagged (from UniProt P11142 1-646)”, in assay [2], the binding result was “no binding”.

Regarding “CDK inhibitor p27, HA-tagged (from UniProt P46527 1-198)”, the values for the binding entry in assay [3] and in assay [1] were “no binding” and “binds”, respectively.

Consider “heat shock cognate protein 70 (Hsc70), wild type, T7-tagged (from UniProt P11142 1-646)”, for which the binding result in assay [3], in assay [2] and in assay [1] was “binds” throughout.

Take “Hsc70 Δ1–385 mutant, T7-tagged (from UniProt P11142 386-646) (domain or fragment)”: the binding entry in assay [2] is “binds”.
